# Article PMC7228994
# The chains behind the UniProt entries cited, without tags or fusion partners.
# UniProt Q9BXW9: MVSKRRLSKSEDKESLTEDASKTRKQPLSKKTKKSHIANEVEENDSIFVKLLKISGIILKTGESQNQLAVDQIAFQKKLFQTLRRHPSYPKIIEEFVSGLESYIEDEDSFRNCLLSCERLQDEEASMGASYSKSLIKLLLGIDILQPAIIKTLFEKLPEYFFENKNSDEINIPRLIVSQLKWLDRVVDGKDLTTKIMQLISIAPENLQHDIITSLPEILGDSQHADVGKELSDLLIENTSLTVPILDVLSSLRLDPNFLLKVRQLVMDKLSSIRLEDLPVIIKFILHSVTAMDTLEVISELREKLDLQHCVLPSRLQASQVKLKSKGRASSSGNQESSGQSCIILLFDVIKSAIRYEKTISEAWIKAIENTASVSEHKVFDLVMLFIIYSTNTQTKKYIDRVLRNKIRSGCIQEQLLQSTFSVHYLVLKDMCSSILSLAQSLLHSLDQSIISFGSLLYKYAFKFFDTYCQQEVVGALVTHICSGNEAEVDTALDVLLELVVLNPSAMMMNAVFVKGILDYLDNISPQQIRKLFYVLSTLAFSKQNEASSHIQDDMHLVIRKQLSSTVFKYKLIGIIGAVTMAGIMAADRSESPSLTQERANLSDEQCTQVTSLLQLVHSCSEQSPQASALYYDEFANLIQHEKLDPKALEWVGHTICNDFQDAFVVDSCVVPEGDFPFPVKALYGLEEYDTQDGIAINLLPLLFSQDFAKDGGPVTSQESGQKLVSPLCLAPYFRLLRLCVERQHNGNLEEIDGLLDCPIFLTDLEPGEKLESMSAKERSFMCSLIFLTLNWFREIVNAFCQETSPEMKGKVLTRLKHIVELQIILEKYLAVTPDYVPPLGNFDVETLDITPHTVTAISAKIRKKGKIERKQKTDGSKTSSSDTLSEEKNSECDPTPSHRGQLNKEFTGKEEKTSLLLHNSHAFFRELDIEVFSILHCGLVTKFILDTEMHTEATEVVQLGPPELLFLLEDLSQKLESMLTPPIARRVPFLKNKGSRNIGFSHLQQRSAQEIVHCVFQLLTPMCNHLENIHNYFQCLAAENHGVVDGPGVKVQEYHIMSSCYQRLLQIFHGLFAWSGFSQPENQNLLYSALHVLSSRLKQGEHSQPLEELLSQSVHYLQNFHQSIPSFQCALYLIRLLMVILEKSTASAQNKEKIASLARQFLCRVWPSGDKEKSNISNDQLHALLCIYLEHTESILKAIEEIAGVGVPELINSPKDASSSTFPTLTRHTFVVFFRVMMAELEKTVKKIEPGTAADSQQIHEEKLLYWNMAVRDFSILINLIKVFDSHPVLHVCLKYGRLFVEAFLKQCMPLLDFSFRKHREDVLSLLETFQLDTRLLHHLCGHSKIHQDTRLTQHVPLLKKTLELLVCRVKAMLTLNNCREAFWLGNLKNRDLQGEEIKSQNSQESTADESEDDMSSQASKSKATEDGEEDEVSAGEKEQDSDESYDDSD
# UniProt P27694: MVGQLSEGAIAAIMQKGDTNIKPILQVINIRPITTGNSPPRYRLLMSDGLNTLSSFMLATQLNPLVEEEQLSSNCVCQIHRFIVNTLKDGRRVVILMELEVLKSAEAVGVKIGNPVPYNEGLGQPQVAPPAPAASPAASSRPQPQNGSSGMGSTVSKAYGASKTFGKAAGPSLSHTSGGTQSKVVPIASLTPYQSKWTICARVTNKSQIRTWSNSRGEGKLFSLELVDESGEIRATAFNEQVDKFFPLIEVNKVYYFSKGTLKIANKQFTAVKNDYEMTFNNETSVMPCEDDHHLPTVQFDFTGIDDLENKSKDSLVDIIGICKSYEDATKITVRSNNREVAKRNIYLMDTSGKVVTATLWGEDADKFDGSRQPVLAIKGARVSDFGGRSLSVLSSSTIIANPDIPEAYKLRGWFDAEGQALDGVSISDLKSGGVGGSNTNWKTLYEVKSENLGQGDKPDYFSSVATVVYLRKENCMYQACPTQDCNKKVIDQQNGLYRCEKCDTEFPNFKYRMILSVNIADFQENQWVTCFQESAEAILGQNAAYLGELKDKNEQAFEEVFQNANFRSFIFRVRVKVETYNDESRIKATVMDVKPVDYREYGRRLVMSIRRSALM
# UniProt Q8IY92: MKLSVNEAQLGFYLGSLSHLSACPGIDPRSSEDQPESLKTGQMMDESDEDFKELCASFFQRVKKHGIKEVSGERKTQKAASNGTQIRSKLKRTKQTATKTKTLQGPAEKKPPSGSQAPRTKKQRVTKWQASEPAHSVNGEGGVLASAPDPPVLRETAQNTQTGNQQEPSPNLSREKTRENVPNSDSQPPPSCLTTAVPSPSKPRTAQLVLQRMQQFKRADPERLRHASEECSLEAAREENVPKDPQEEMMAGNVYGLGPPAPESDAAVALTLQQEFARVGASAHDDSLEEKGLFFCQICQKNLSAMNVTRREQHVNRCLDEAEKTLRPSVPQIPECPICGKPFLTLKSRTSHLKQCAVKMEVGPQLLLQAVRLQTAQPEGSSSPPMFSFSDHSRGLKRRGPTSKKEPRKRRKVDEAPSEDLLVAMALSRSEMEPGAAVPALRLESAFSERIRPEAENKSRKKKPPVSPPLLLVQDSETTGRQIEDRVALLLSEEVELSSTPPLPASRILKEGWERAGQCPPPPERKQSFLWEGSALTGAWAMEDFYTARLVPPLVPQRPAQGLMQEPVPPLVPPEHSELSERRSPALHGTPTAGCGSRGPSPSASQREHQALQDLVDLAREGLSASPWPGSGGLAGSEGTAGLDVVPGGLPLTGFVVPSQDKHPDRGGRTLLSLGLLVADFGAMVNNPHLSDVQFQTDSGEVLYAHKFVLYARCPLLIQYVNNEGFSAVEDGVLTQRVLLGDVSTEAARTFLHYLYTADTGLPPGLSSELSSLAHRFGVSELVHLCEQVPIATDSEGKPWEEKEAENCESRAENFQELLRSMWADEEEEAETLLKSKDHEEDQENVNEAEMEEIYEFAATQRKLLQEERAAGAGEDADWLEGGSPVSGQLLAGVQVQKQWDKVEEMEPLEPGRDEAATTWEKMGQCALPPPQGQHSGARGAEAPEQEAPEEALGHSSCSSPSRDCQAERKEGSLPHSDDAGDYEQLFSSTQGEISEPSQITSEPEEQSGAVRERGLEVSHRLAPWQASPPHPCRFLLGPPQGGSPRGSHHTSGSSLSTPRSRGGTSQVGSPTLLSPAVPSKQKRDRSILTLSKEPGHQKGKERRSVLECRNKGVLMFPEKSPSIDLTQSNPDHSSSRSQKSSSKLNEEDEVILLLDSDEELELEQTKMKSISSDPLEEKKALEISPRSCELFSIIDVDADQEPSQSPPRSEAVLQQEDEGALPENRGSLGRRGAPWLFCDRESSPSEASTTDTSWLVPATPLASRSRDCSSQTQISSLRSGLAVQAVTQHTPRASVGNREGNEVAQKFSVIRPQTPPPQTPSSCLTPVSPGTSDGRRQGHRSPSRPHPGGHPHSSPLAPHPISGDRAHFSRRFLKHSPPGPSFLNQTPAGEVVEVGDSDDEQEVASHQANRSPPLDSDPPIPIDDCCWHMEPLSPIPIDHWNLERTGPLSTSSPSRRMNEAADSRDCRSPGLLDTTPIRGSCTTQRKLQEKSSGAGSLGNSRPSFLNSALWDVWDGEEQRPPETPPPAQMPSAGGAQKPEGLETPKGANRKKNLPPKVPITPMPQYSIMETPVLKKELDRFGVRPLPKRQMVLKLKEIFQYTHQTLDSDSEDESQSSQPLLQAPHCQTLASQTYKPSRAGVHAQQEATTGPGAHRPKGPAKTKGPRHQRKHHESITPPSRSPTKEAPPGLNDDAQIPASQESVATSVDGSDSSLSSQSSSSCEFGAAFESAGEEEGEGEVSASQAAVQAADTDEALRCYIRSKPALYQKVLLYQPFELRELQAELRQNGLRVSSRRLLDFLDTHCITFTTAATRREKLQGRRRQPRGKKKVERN
# Where a chain is given by its changes, count along the chain named. These are yes or no findings as the source states them, for the method shown. Binding seen in cells or lysates may run through a third protein. Some binding calls cover weakened binding; strength is not graded here. Tags and fused reporters may be left off the sequences shown.
# Tests used:
# Experiment in all cases: co-IP; GFP-Trap_A beads on benzonase-treated lysates (30 mM Tris pH 7.5, 150 mM NaCl, 2 mM MgCl2, 0.5% Triton X-100) of U2OS XPF KO cells expressing GFP-tagged XPF forms; cells mock treated or 10 µg/ml MMC for 1 h; immunoblot
# [1] = target: T1, GFP-tagged XPF carrying the amino acid substitution S786F (human) (UniProt Q92889)
# T1 sequence: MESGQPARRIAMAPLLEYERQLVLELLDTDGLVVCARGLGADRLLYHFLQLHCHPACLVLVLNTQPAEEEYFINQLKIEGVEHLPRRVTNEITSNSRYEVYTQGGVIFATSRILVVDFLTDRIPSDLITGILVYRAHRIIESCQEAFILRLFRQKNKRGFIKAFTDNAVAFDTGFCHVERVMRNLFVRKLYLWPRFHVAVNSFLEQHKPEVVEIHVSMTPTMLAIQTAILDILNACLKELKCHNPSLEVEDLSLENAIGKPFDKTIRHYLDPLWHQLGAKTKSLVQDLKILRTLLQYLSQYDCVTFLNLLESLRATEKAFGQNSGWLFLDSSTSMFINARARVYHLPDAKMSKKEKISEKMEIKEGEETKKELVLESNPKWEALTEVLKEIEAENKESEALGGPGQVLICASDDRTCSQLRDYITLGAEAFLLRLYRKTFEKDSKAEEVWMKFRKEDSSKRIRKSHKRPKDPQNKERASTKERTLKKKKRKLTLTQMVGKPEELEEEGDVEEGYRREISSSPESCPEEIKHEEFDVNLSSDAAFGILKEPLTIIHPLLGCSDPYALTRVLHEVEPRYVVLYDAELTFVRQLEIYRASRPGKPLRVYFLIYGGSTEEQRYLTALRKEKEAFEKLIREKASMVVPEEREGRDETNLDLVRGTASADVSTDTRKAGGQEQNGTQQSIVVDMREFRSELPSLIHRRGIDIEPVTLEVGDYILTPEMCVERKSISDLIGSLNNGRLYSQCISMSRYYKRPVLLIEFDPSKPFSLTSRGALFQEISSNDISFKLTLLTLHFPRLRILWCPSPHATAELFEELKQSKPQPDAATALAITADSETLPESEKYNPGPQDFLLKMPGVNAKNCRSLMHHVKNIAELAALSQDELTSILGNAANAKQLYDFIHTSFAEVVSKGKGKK
# [2] = target: T2, GFP-tagged XPF carrying the amino acid substitution R689S (human) (UniProt Q92889)
# T2 sequence: T1 sequence with R689S, F786S
# [3] = target: T3, GFP-tagged wild-type XPF (human) (UniProt Q92889)
# T3 sequence: T1 sequence with F786S
Substance,binding [1],binding [2],binding [3]
FANCD2 (from UniProt Q9BXW9 1-1451),no binding,no binding,–
"RPA70, the largest subunit of the heterotrimeric RPA complex (from UniProt P27694 1-616)",no binding,no binding,–
SLX4 (from UniProt Q8IY92 1-1834),binds,binds,binds
